Source: the supplement of paper PMC12067230
Single values of this set are uncertain.

Assay: amyloid nucleation score relative to library mode (yeast Sup35 reporter selection) (log enrichment difference); higher = more amyloid nucleation; sequences are the first 22 residues of the Bri2 peptide extended by up to 12 random residues
Conditions: random library (experiment): 1;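 active = nucleation score significantly above 0 at FDR 0.05; inactive = not significantly above 0 or absent from output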
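Note: [psi-pin-] Saccharomyces cerevisiae expressing SupN fusions, induced by 100 µM Cu2SO4, selected 7 d at 30 °C without adenine and uracil, scored by deep sequencing of output versus input.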

| Sequence | amyloid nucleation score |
| --- | --- |
| EASNCFAIRHFENKFAVETLICPVNHCEDVYDTL | inactive |
| EASNCFAIRHFENKFAVETLICPVSGTSVCNEHA | inactive |
| EASNCFAIRHFENKFAVETLICPVTCSWA | 5.86 |
| EASNCFAIRHFENKFAVETLICPVTSKSWSAGRA | inactive |
| EASNCFAIRHFENKFAVETLICPVVGYVCNRAVW | inactive |
| EASNCFAIRHFENKFAVETLICPVVVRFRSFEEA | inactive |
| EASNCFAIRHFENKFAVETLICPVWTIYFRWIGS | inactive |
| EASNCFAIRHFENKFAVETLICPVWWTLTGHAWR | inactive |
| EASNCFAIRHFENKFAVETLICPVYGSTRHVDDG | inactive |
| EASNCFAIRHFENKFAVETLICPW | inactive |
| EASNCFAIRHFENKFAVETLICPWCDTSMNGSPD | 2.93 |
| EASNCFAIRHFENKFAVETLICPWCGP | 3.36 |
| EASNCFAIRHFENKFAVETLICPWCMCLRMRYSA | 2.29 |
| EASNCFAIRHFENKFAVETLICPWEAPNGDTCPV | inactive |
| EASNCFAIRHFENKFAVETLICPWFDGKASCRCT | 6.02 |
| EASNCFAIRHFENKFAVETLICPWG | inactive |
| EASNCFAIRHFENKFAVETLICPWHGPW | inactive |
| EASNCFAIRHFENKFAVETLICPWHPSSSASGRE | inactive |
| EASNCFAIRHFENKFAVETLICPWHRVWVRPSGT | inactive |

| Sequence | amyloid nucleation score |
| --- | --- |
| EASNCFAIRHFENKFAVETLICPWI | inactive |
| EASNCFAIRHFENKFAVETLICPWIRA | inactive |
| EASNCFAIRHFENKFAVETLICPWIVSFLLTSVV | inactive |
| EASNCFAIRHFENKFAVETLICPWLNCSRQVFVG | inactive |
| EASNCFAIRHFENKFAVETLICPWMKVSNVTRLA | inactive |
| EASNCFAIRHFENKFAVETLICPWPAIIYGHNLM | -0.187 |
| EASNCFAIRHFENKFAVETLICPWR | 1.43 |
| EASNCFAIRHFENKFAVETLICPWRPIYNRLHTA | inactive |
| EASNCFAIRHFENKFAVETLICPWSFAYTLRGIW | inactive |
| EASNCFAIRHFENKFAVETLICPY | inactive |
| EASNCFAIRHFENKFAVETLICPYELGVIRRSVR | inactive |
| EASNCFAIRHFENKFAVETLICPYKTRMRQFIQS | -0.0525 |
| EASNCFAIRHFENKFAVETLICPYLVRMLCGAWV | inactive |
| EASNCFAIRHFENKFAVETLICPYPWRNRRGRVA | inactive |
| EASNCFAIRHFENKFAVETLICPYRMYLKPWVEF | 0.693 |
| EASNCFAIRHFENKFAVETLICPYVSEVRMALFG | 3.89 |
| EASNCFAIRHFENKFAVETLICPYYVGFMYVLSP | 2.87 |
| EASNCFAIRHFENKFAVETLICQADVRPIKWRAE | inactive |
| EASNCFAIRHFENKFAVETLICQAHGQGERLQPY | inactive |

| Sequence | amyloid nucleation score |
| --- | --- |
| EASNCFAIRHFENKFAVETLICQAMWDSSHVRF | 2.22 |
| EASNCFAIRHFENKFAVETLICQARLEWECNKQA | inactive |
| EASNCFAIRHFENKFAVETLICQARVQTKRSRLE | inactive |
| EASNCFAIRHFENKFAVETLICQCAVCR | 3.45 |
| EASNCFAIRHFENKFAVETLICQCCSVDGRTCCW | 8.6 |
| EASNCFAIRHFENKFAVETLICQCFLCNLCWECD | 8.8 |
| EASNCFAIRHFENKFAVETLICQCGFACRRVTYA | inactive |
| EASNCFAIRHFENKFAVETLICQCKVPLCMPMLA | inactive |
| EASNCFAIRHFENKFAVETLICQCMWMCNMVYAT | -0.295 |
| EASNCFAIRHFENKFAVETLICQCNKVCVWDFRW | 5.82 |
| EASNCFAIRHFENKFAVETLICQCQTERRKAL | 6.63 |
| EASNCFAIRHFENKFAVETLICQCSQRCTGQLG | 5.1 |
| EASNCFAIRHFENKFAVETLICQCVKCGDRFRRL | 2.45 |
| EASNCFAIRHFENKFAVETLICQCVPVSAVYDTG | 5.78 |
| EASNCFAIRHFENKFAVETLICQCVSSTS | inactive |
| EASNCFAIRHFENKFAVETLICQCWYRCPRECGE | 5.03 |
| EASNCFAIRHFENKFAVETLICQDNVVSRLGSAR | inactive |
| EASNCFAIRHFENKFAVETLICQDWYRGTTSSCR | inactive |

Same assay, conditions: random library (experiment): 2

| Sequence | amyloid nucleation score |
| --- | --- |
| EASNCFAIRHFENKFAVETLICPVNLWYSEYGGM | 7.37 |
| EASNCFAIRHFENKFAVETLICPVQAN | inactive |
| EASNCFAIRHFENKFAVETLICPVRLRRVRTKRS | -0.0862 |
| EASNCFAIRHFENKFAVETLICPVWVERGSPGSG | 4.89 |
